Results from the supplement of paper PMC3334620.
The full ranking holds about 33,000 sequences; the median of “E-score (-0.5 to 0.5)” is about -0.021, and the highest 2% start at about 0.32. Some of the results follow.

Biological target: T1, Zap1 (UniProt P47043)
T1 sequence: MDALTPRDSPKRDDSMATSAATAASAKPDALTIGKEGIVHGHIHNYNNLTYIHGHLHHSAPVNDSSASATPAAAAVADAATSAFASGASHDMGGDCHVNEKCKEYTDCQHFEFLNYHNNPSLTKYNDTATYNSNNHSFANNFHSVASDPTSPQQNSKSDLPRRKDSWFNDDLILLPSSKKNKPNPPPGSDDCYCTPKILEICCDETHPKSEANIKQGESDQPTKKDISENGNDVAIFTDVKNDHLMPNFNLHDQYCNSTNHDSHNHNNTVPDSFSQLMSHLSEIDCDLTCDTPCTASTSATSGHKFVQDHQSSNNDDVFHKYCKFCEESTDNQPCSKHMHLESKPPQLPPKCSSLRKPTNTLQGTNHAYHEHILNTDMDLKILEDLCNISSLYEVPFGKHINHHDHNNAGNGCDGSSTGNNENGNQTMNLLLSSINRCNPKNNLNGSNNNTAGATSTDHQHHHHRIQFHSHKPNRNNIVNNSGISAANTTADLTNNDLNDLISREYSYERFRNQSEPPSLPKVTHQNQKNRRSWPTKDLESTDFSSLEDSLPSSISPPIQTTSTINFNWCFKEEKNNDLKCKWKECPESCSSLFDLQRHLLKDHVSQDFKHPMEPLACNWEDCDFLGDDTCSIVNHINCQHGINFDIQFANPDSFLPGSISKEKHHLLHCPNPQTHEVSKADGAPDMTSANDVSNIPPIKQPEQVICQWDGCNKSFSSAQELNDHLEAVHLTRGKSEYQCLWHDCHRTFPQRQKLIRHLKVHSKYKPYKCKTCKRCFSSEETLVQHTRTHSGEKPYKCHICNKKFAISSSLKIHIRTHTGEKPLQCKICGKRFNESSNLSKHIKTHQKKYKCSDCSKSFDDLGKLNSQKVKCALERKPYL
Assay: PBM E-score (8-mer binding enrichment) (E-score (-0.5 to 0.5)); higher = stronger / more preferred TF binding; most listed sequences are background and not binding sites
Settings: protein concentration: 200 nM; construct: GST-full length
Outline: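 Detection of bound protein used fluorescent anti-GST, with scans normalised by masliner. The proteins were GST-tagged yeast transcription factors applied at about 100-200 nM to universal all-10-mer Agilent arrays made double-stranded by primer extension. Each ungapped eight-base word, pooled with its reverse complement, was scored with an E-score from the Universal PBM Analysis Suite.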

| Sequence | PBM E-score |
| --- | --- |
| ACAGGATA | 0.0473 |
| GCGGTAAA | 0.165 |
| ACCTCCCC | 0.0726 |
| CCCGCCCG | 0.108 |
| ACGCTCCA | -0.177 |
| ATACCTCC | -0.0021 |
| GCAATCGC | -0.263 |
| ATCTGATA | -0.0479 |
| ATTGTCTA | 0.092 |
| CGTAGGCA | -0.237 |
| AATGGCTC | 0.00497 |
| CCACAATA | 0.12 |
| CTAATTGA | 0.0435 |
| GCTCGTTA | -0.162 |
| ATAACAAC | 0.196 |
| ATATTAAC | 0.135 |
| CTCGGACA | -0.00772 |
| GCATACCC | 0.344 |
| CTCTGCCA | -0.302 |
| CAAACGTC | -0.123 |
| CCTAACTC | 0.196 |
| AGTGCTTC | -0.0649 |

| Sequence | PBM E-score |
| --- | --- |
| GGGATGAA | -0.247 |
| AAAACTTC | 0.0875 |
| GAAGGTGA | 0.116 |
| ACTACTGA | -0.116 |
| AGCATTAC | -0.0711 |
| ATCGCCTC | -0.0367 |
| ATAAACCA | 0.121 |
| AAAGTATC | 0.0665 |
| ACTGCCGG | -0.183 |
| TGCCTGAA | -0.173 |
| AATCTCCG | -0.158 |
| AGGAATAG | 0.00775 |
| ACTCACAG | 0.0312 |
| CTCCGATC | -0.227 |
| CTCGGCCC | -0.27 |
| GCTGGAAA | -0.0229 |
| GAGGCATA | 0.00151 |
| CATTTCAA | 0.191 |
| CGCGAACG | 0.00565 |
| AGCTGACC | 0.182 |
| CGGCCTCC | 0.0208 |
| GAATAGGC | 0.09 |

| Sequence | PBM E-score |
| --- | --- |
| AAACGATC | 0.0567 |
| AAGGCCGA | -0.022 |
| ACCTACGC | -0.0407 |
| AGTAACAT | -0.0738 |
| ATGGACGC | 0.017 |
| AGACGTAG | -0.138 |
| GATCCTCA | 0.112 |
| AGGGCACA | -0.0726 |
| AGCATGAT | -0.153 |
| GGGATCCC | 0.0219 |
| ATGCCAGC | -0.131 |
| CAGTCTCA | -0.0911 |
| CACGGCTC | -0.115 |
| GCGTACAA | -0.105 |
| ACTATGCG | -0.141 |
| AGCATGAA | -0.0231 |
| AATGGTCT | 0.0159 |
| ATGACCTC | 0.442 |
| CTCGCATC | -0.0763 |
| ACTCAGCG | -0.0722 |
| GGGCAAGA | -0.034 |
| GATTAGAA | -0.0774 |

| Sequence | PBM E-score |
| --- | --- |
| CTATGTTA | 0.111 |
| CTTCAGAC | -0.136 |
| CCGTTTAC | -0.0252 |
| CATGTACA | -0.119 |
| AGGGGAAA | -0.232 |
| AACTGCGC | -0.0727 |
| CCGTGACG | -0.0247 |
| AATTGGCG | -0.0809 |
| GTAGCCAC | -0.0136 |
| GATGATGA | -0.133 |
| CAACGTCC | -0.206 |
| AAGATTTG | -0.0267 |
| AAGATTGT | 0.00389 |
| ATTACTCC | -0.0197 |
| AAGATATC | 0.0829 |
| CAACTAGA | 0.0471 |
| GAGTAGGA | -0.289 |
| CTATTTGC | -0.163 |
| CCTCGTTA | 0.13 |
| GTCAAATA | 0.0381 |
